# In the supplement of paper PMC12217912:
# Some of the results follow. Sequences were assembled here from the parent chain. Values near 0.05 are background.
# B1: TEV protease; numbered along this chain (parent)
# chain: MGESLFKGPRDYNPISSSICHLTNESDGHTTSLYGIGFGPFIITNKHLFRRNNGTLVVQSLHGVFKVKDTTTLQQHLVDGRDMIIIRMPKDFPPFPQKLKFREPQREERICLVTTNFQTKSMSSMVSDTSCTFPSGDGIFWKHWIQTKDGQCGSPLVSTRDGFIVGIHSASNFTNTNNYFTSVPKNFMELLTNQEAQQWVSGWRLNADSVLWGGHKVFMVKPEEPFQPVKEATQL
# Variants of: B1
# Test: raw area under fraction-flipped curve 0-4 h after induction (AUC4h, not background-subtracted), DNA-recorder readout of cleavage of the substrate (dimensionless); higher = more cleavage of the substrate by the protease variant
# Conditions: temperature: 34 °C; time window: 0-4 h after rhamnose induction
# Description: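 In vivo DNA recorder in E. coli TOP10(DE3) ΔrhaA at 34 °C. Each TEVp single-site mutant (parent TEVp 0) is paired with a single-site variant of the 7-mer TEVs (canonical ENLYFQ|S). The substrate sits between flexible linkers in a Bxb1-sfGFP-TEVs-SsrA fusion, so cleavage stabilises Bxb1 and speeds flipping of a recombination array, read by NGS. The value is the raw area under the fraction-flipped curve over 0-4 h after rhamnose induction (AUC4h), with ≥20 reads per time point. It is not background-subtracted; inactive controls average about 0.047.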
# 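Note: Bxb1 expression induced with 0.2% (w/v) L-rhamnose at OD600 near 0.5, cultures sampled hourly, flipped fraction per protease–substrate barcode pair counted by paired-end Illumina sequencing.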
variant,measurement,value
MGESLFKGPRDYNPISSSICHLTNESDGHTTSLYGIGFGPFIITNKHLFRRNNGTLVVQSLHGVFKVKDTTTLQQHLVDGRDMIEIRMPKDFPPFPQKLKFREPQREERICLVTTNFQTKSMSSMVSDTSCTFPSGDGIFWKHWIQTKDGQCGSPLVSTRDGFIVGIHSASNFTNTNNYFTSVPKNFMELLTNQEAQQWVSGWRLNADSVLWGGHKVFMVKPEEPFQPVKEATQL [I85E],area with substrate ENLAFQS,0.0607
same,area with substrate ENLCFQS,0.0771
same,area with substrate ENLEFQS,0.0564
same,area with substrate ENLFFQS,0.0546
same,area with substrate ENLGFQS,0.0306
same,area with substrate ENLHFQS,0.0502
same,area with substrate ENLIFQS,0.0541
same,area with substrate ENLKFQS,0.0509
same,area with substrate ENLNFQS,0.0479
same,area with substrate ENLSFQS,0.038
same,area with substrate ENLTFQS,0.0717
same,area with substrate ENLVFQS,0.0777
same,area with substrate ENLWFQS,0.0573
MGESLFKGPRDYNPISSSICHLTNESDGHTTSLYGIGFGPFIITNKHLFRRNNGTLVVQSLHGVFKVKDTTTLQQHLVDGRDMINIRMPKDFPPFPQKLKFREPQREERICLVTTNFQTKSMSSMVSDTSCTFPSGDGIFWKHWIQTKDGQCGSPLVSTRDGFIVGIHSASNFTNTNNYFTSVPKNFMELLTNQEAQQWVSGWRLNADSVLWGGHKVFMVKPEEPFQPVKEATQL [I85N],area with substrate ENLAFQS,0.0584
same,area with substrate ENLCFQS,0.062
same,area with substrate ENLDFQS,0.0467
same,area with substrate ENLEFQS,0.0418
same,area with substrate ENLFFQS,0.0408
same,area with substrate ENLKFQS,0.0479
same,area with substrate ENLLFQS,0.0635
same,area with substrate ENLNFQS,0.0531
same,area with substrate ENLQFQS,0.0364
same,area with substrate ENLRFQS,0.0418
same,area with substrate ENLSFQS,0.0521
MGESLFKGPRDYNPISSSICHLTNESDGHTTSLYGIGFGPFIITNKHLFRRNNGTLVVQSLHGVFKVKDTTTLQQHLVDGRDMISIRMPKDFPPFPQKLKFREPQREERICLVTTNFQTKSMSSMVSDTSCTFPSGDGIFWKHWIQTKDGQCGSPLVSTRDGFIVGIHSASNFTNTNNYFTSVPKNFMELLTNQEAQQWVSGWRLNADSVLWGGHKVFMVKPEEPFQPVKEATQL [I85S],area with substrate ENLAFQS,0.0445
same,area with substrate ENLDFQS,0.0603
same,area with substrate ENLEFQS,0.0497
same,area with substrate ENLFFQS,0.0571
same,area with substrate ENLGFQS,0.0508
same,area with substrate ENLIFQS,0.0528
same,area with substrate ENLLFQS,0.0668
same,area with substrate ENLMFQS,0.0572
same,area with substrate ENLPFQS,0.0449
same,area with substrate ENLQFQS,0.0386
same,area with substrate ENLSFQS,0.0484
same,area with substrate ENLTFQS,0.0609
same,area with substrate ENLVFQS,0.0542
MGESLFKGPRDYNPISSSICHLTNESDGHTTSLYGIGFGPFIITNKHLFRRNNGTLVVQSLHGVFKVKDTTTLQQHLVDGRDMIIIEMPKDFPPFPQKLKFREPQREERICLVTTNFQTKSMSSMVSDTSCTFPSGDGIFWKHWIQTKDGQCGSPLVSTRDGFIVGIHSASNFTNTNNYFTSVPKNFMELLTNQEAQQWVSGWRLNADSVLWGGHKVFMVKPEEPFQPVKEATQL [R87E],area with substrate ENLAFQS,0.0588
same,area with substrate ENLCFQS,0.0761
same,area with substrate ENLHFQS,0.0543
same,area with substrate ENLKFQS,0.0645
same,area with substrate ENLNFQS,0.0747
same,area with substrate ENLQFQS,0.0692
MGESLFKGPRDYNPISSSICHLTNESDGHTTSLYGIGFGPFIITNKHLFRRNNGTLVVQSLHGVFKVKDTTTLQQHLVDGRDMIIIMMPKDFPPFPQKLKFREPQREERICLVTTNFQTKSMSSMVSDTSCTFPSGDGIFWKHWIQTKDGQCGSPLVSTRDGFIVGIHSASNFTNTNNYFTSVPKNFMELLTNQEAQQWVSGWRLNADSVLWGGHKVFMVKPEEPFQPVKEATQL [R87M],area with substrate ENLAFQS,0.0576
same,area with substrate ENLCFQS,0.0895
same,area with substrate ENLDFQS,0.046
same,area with substrate ENLHFQS,0.0566
same,area with substrate ENLIFQS,0.0957
same,area with substrate ENLLFQS,0.0637
same,area with substrate ENLQFQS,0.0571
same,area with substrate ENLRFQS,0.0758
same,area with substrate ENLWFQS,0.0735
MGESLFKGPRDYNPISSSICHLTNESDGHTTSLYGIGFGPFIITNKHLFRRNNGTLVVQSLHGVFKVKDTTTLQQHLVDGRDMIIIRMGKDFPPFPQKLKFREPQREERICLVTTNFQTKSMSSMVSDTSCTFPSGDGIFWKHWIQTKDGQCGSPLVSTRDGFIVGIHSASNFTNTNNYFTSVPKNFMELLTNQEAQQWVSGWRLNADSVLWGGHKVFMVKPEEPFQPVKEATQL [P89G],area with substrate ENLAFQS,0.0601
same,area with substrate ENLDFQS,0.0521
same,area with substrate ENLEFQS,0.0597
same,area with substrate ENLFFQS,0.0604
same,area with substrate ENLHFQS,0.0666
same,area with substrate ENLKFQS,0.0712
same,area with substrate ENLNFQS,0.0586
same,area with substrate ENLPFQS,0.0474
same,area with substrate ENLQFQS,0.0701
same,area with substrate ENLRFQS,0.0567
same,area with substrate ENLSFQS,0.0722
same,area with substrate ENLWFQS,0.0519
MGESLFKGPRDYNPISSSICHLTNESDGHTTSLYGIGFGPFIITNKHLFRRNNGTLVVQSLHGVFKVKDTTTLQQHLVDGRDMIIIRMIKDFPPFPQKLKFREPQREERICLVTTNFQTKSMSSMVSDTSCTFPSGDGIFWKHWIQTKDGQCGSPLVSTRDGFIVGIHSASNFTNTNNYFTSVPKNFMELLTNQEAQQWVSGWRLNADSVLWGGHKVFMVKPEEPFQPVKEATQL [P89I],area with substrate ENLAFQS,0.0513
same,area with substrate ENLEFQS,0.0586
same,area with substrate ENLFFQS,0.055
same,area with substrate ENLHFQS,0.0567
same,area with substrate ENLKFQS,0.0499
same,area with substrate ENLQFQS,0.0479
same,area with substrate ENLRFQS,0.0536
same,area with substrate ENLSFQS,0.0522
same,area with substrate ENLWFQS,0.0414
MGESLFKGPRDYNPISSSICHLTNESDGHTTSLYGIGFGPFIITNKHLFRRNNGTLVVQSLHGVFKVKDTTTLQQHLVDGRDMIIIRMKKDFPPFPQKLKFREPQREERICLVTTNFQTKSMSSMVSDTSCTFPSGDGIFWKHWIQTKDGQCGSPLVSTRDGFIVGIHSASNFTNTNNYFTSVPKNFMELLTNQEAQQWVSGWRLNADSVLWGGHKVFMVKPEEPFQPVKEATQL [P89K],area with substrate ENLAFQS,0.0618
same,area with substrate ENLHFQS,0.0507
same,area with substrate ENLIFQS,0.078
same,area with substrate ENLKFQS,0.0588
same,area with substrate ENLNFQS,0.049
same,area with substrate ENLWFQS,0.0572
MGESLFKGPRDYNPISSSICHLTNESDGHTTSLYGIGFGPFIITNKHLFRRNNGTLVVQSLHGVFKVKDTTTLQQHLVDGRDMIIIRMRKDFPPFPQKLKFREPQREERICLVTTNFQTKSMSSMVSDTSCTFPSGDGIFWKHWIQTKDGQCGSPLVSTRDGFIVGIHSASNFTNTNNYFTSVPKNFMELLTNQEAQQWVSGWRLNADSVLWGGHKVFMVKPEEPFQPVKEATQL [P89R],area with substrate ENLAFQS,0.0573
same,area with substrate ENLCFQS,0.0567
same,area with substrate ENLDFQS,0.0519
same,area with substrate ENLEFQS,0.0691
same,area with substrate ENLFFQS,0.0807
same,area with substrate ENLHFQS,0.0622
same,area with substrate ENLKFQS,0.0639
same,area with substrate ENLLFQS,0.0456
same,area with substrate ENLNFQS,0.0606
same,area with substrate ENLRFQS,0.0728
same,area with substrate ENLTFQS,0.0403
same,area with substrate ENLVFQS,0.0571
MGESLFKGPRDYNPISSSICHLTNESDGHTTSLYGIGFGPFIITNKHLFRRNNGTLVVQSLHGVFKVKDTTTLQQHLVDGRDMIIIRMPDDFPPFPQKLKFREPQREERICLVTTNFQTKSMSSMVSDTSCTFPSGDGIFWKHWIQTKDGQCGSPLVSTRDGFIVGIHSASNFTNTNNYFTSVPKNFMELLTNQEAQQWVSGWRLNADSVLWGGHKVFMVKPEEPFQPVKEATQL [K90D],area with substrate ENLAFQS,0.0597
same,area with substrate ENLDFQS,0.0475
same,area with substrate ENLFFQS,0.0946
same,area with substrate ENLHFQS,0.0739
same,area with substrate ENLKFQS,0.0842
same,area with substrate ENLSFQS,0.0583
MGESLFKGPRDYNPISSSICHLTNESDGHTTSLYGIGFGPFIITNKHLFRRNNGTLVVQSLHGVFKVKDTTTLQQHLVDGRDMIIIRMPEDFPPFPQKLKFREPQREERICLVTTNFQTKSMSSMVSDTSCTFPSGDGIFWKHWIQTKDGQCGSPLVSTRDGFIVGIHSASNFTNTNNYFTSVPKNFMELLTNQEAQQWVSGWRLNADSVLWGGHKVFMVKPEEPFQPVKEATQL [K90E],area with substrate ENLAFQS,0.0819
same,area with substrate ENLCFQS,0.053
same,area with substrate ENLIFQS,0.0885
same,area with substrate ENLRFQS,0.0844
same,area with substrate ENLTFQS,0.0785
